The campaign covered roughly 73,000 compounds. About 2,500 (3.4%) were called active. This list was built around the results that the source calls inconclusive (neither active nor inactive); the mix of calls is not that of the screen. Calls follow the shape of the dose curve; as a rule, active = well fitted inhibition curve with a large enough effect; inconclusive = small, poorly fitted or top-dose-only effect; inactive = no such curve, though single readings can be large or run the other way. A potency beside an inconclusive call is a rough fit, not a confirmed value.
What follows are compounds tested against 3-hydroxyacyl-CoA dehydrogenase type-2 (Homo sapiens) (UniProt Q99714) (assay: qHTS Assay for Inhibitors of HADH2 (Hydroxyacyl-Coenzyme A Dehydrogenase, Type II)). Conditions: recombinant HADH2, NADH fluorescence, beta-hydroxybutyryl-CoA; activity change, negative = inhibition: at 57.1 µM (top of the series).
Procedure, shortened: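 NADH fluorescence (ex 360/em 450 nm) read every 30 s for 4 min; activity taken as last-minus-first time point difference. Enzyme 20 nM, NAD+ 1 mM, beta-hydroxybutyryl-CoA 90 uM, pH 9.0 Tris buffer.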
% is scaled to controls: 0 for no effect and ±100 for the full control effect; potency is read from the fitted curve at half-maximal effect; tags tell the direction and shape of the fitted curve.
Also: nearly all actives have a fitted effect of over 60% in size.

UniProt Q99714, sequence (Q99714 whole entry, looked up): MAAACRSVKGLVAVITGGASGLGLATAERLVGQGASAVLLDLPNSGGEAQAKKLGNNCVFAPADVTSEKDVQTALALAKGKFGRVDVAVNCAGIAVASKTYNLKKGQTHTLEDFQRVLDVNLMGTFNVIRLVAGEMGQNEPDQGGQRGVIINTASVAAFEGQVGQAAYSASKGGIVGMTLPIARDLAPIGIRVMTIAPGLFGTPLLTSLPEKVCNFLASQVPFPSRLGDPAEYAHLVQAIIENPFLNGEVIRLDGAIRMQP
UniProt Q99714, sequence (Q99714 whole entry, looked up): as above

Q: `CCOc1ccccc1NC(=O)CCSc1nc2n[nH]c(C)c2c(=N)n1-c1ccccc1Cl` was tested. Which Potency did it give?
A: inconclusive: 39.8 µM [inhibitor, single point]

Q: For `CCOC(=O)c1cnn(CC2CCCCC2)c1N`, which Potency is on record?
A: inactive

Q: For `CCSc1nnc(-c2ccc(OC)cc2)o1`, which Potency is on record?
A: inactive

Q: For `N#Cc1c(N)nc(SCc2ccccc2)c(C#N)c1-c1ccco1`, which Potency is on record?
A: inconclusive: 39.8 µM [inhibitor, single point]

Q: For `Cc1nc(N)sc1-c1csc(Nc2ccccn2)n1`, which Potency is on record?
A: inconclusive: 10 µM [inhibitor, partial curve]

Q: Which Potency does the source give for `CCC(=O)N/C(N)=N/c1nc(C)c2cc(OC)ccc2n1` here?
A: inactive

Q: Which Potency does the source give for `CC1CN(S(=O)(=O)c2ccc(C(=O)Nc3sc4c(c3C(N)=O)CCN(C)C4)cc2)CC(C)O1` (centres undefined) here?
A: inactive

Q: For `Fc1ccc(-c2nnc3sc(-c4ccc5c(c4)OCO5)nn23)cc1`, which Potency is on record?
A: active: 25.1 µM

Q: Which Potency does the source give for `O=C(CSC1=Nc2ccccc2C2=NC(c3ccccc3)C(=O)N12)NCC1CCCO1` (centres undefined) here?
A: active: 31.6 µM

Q: `N#CC1=C(N)SC(N)=C(C#N)C1c1ccoc1` was tested. Which Potency did it give?
A: inconclusive: 3.98 µM [inhibitor, full curve]

Q: Which Potency does the source give for `CC1=C(SCCC#N)S/C(=C2\SC(C)=C(SCCC#N)S2)S1` here?
A: inconclusive: 0.158 µM [inhibitor, full curve]

Q: `COc1cc(OC)cc(C(=O)Nc2ccc(-c3nc4ccccc4o3)cc2)c1` was tested. Which Potency did it give?
A: active: 31.6 µM

Q: Which Potency does the source give for `O=C(O)Cn1nnnc1SCC(=O)Nc1ccc(OC(F)(F)F)cc1` here?
A: inactive

Q: With `CC(=O)Cc1nsc(NC(=O)c2ccc(COc3ccccc3)o2)n1` as the compound, how does the Potency read?
A: inconclusive: 31.6 µM [inhibitor, single point]

Q: Which Potency does the source give for `O=c1cc(-c2ccccc2)nc2nc(-c3ccco3)[nH]n12` here?
A: inconclusive: 31.6 µM [inhibitor, single point]

Q: `C=CCn1c(COc2ccc(CC)cc2)nnc1SC/C(O)=C(\C#N)c1nc2ccccc2[nH]1` was tested. Which Potency did it give?
A: inconclusive: 39.8 µM [inhibitor, single point]

Q: Which Potency does the source give for `Cc1oc(-c2ccc(F)cc2)cc1-c1nn2c(-c3ccoc3C)nnc2s1` here?
A: active: 25.1 µM

Q: With `Cc1cccc(C)c1` as the compound, how does the Potency read?
A: inactive

Q: Which Potency does the source give for `CC(C)(O)c1cc(=O)sc2nc3ccccc3n12` here?
A: inactive

Q: How did the activity change, negative = inhibition turn out when `CSc1nnnc2ccccc12` was run?
A: inactive: 6.44% [at 11.4 µM]

Q: `COc1ccc(-c2nc(CS(=O)CC(=O)NC3CCCc4ccccc43)c(C)o2)cc1OC` (centres undefined) was tested. Which Potency did it give?
A: inconclusive: 39.8 µM [inhibitor, single point]

Q: Which Potency does the source give for `CNc1nc(SC)nc(N2CCOCC2)n1` here?
A: inconclusive: 20 µM [inhibitor, single point]

Q: Which Potency does the source give for `COc1ccc(-c2cc3nc4c(c(N5CCC6(CC5)OCCO6)n3n2)CCCC4)cc1` here?
A: inconclusive: 31.6 µM [inhibitor, single point]

Q: For `O=C1CCCCCN1Sc1ccccc1`, which Potency is on record?
A: inconclusive: 0.631 µM [inhibitor, full curve]

Q: With `CC(C)C(=O)Nc1ccc(C(=O)NC2CCSC2=O)cc1` (centres undefined) as the compound, how does the Potency read?
A: inconclusive: 20 µM [inhibitor, partial curve]

Q: Which Potency does the source give for `Nc1c(NCCCN2CCOCC2)c2ccccc2oc1=O` here?
A: inconclusive: 20 µM [inhibitor, partial curve]

Q: How did the Potency turn out when `O=C(NCCc1ccccc1)c1ccccc1NS(=O)(=O)N1CCCC1` was run?
A: active: 10 µM

Q: With `Cc1cc(NC(=O)CSc2nc(-c3ccco3)cc(C(F)(F)F)n2)no1` as the compound, how does the Potency read?
A: inconclusive: 39.8 µM [inhibitor, single point]

Q: Which Potency does the source give for `O=C(NC1CCCc2ccccc21)C1CCN(c2nnc(-n3cccc3)s2)CC1` (centres undefined) here?
A: inactive

Q: Which Potency does the source give for `O=C(Nc1ccc(F)cc1)N(CCCN1CCOCC1)Cc1cc2cc3c(cc2[nH]c1=O)OCO3` here?
A: inconclusive: 31.6 µM [inhibitor, single point]

Q: `CCC(C)c1ccc(O)c(N)c1` (centres undefined) was tested. Which Potency did it give?
A: active: 3.16 µM

Q: How did the Potency turn out when `Cn1c(C(=O)NCc2ccccn2)cc2c(=O)n3ccccc3nc21` was run?
A: active: 15.8 µM

Q: How did the Potency turn out when `N#C/C(=C\c1ccc(O)c(O)c1)C(=O)c1ccc(O)c(O)c1` was run?
A: active: 1.58 µM

Q: Which Potency does the source give for `Cc1ccc(CNC(=O)CCS(=O)(=O)c2cccc3nonc23)cc1` here?
A: inactive

Q: Which Potency does the source give for `Cc1cc(C)cc(Nc2ncc3c(n2)CCCC3=O)c1` here?
A: inactive

Q: How did the Potency turn out when `[O-][N+]1=C(c2cccs2)CN(O)C1` was run?
A: inactive

Q: For `CC1=C(C(=O)Nc2ccccc2C)C(c2ccccc2)NC(=O)N1` (centres undefined), which Potency is on record?
A: inconclusive: 31.6 µM [inhibitor, single point]

Q: How did the Potency turn out when `COc1cccc(Oc2cn[nH]c2-c2ccc(O)cc2O)c1` was run?
A: inconclusive: 39.8 µM [inhibitor, single point]

Q: `Cc1c(C(=O)O)c(O)cc2c1C(=O)c1c(O)c([C@@H]3O[C@H](CO)[C@@H](O)[C@H](O)[C@@H]3O)c(O)c(O)c1C2=O` was tested. Which Potency did it give?
A: inactive

Q: How did the Potency turn out when `O=c1c(O)c(-c2ccc(O)cc2)oc2ccc(O)cc12` was run?
A: inconclusive: 31.6 µM [inhibitor, partial curve, poor fit]

Q: Which Potency does the source give for `N=C1C=CC(=C(c2ccc(N)cc2)c2ccc(N)cc2)C=C1` here?
A: inconclusive: 15.8 µM [inhibitor, partial curve]

Q: How did the Potency turn out when `COCCNC(=O)CSc1nc2ccc(N3CCOCC3)cc2c(=O)n1CCc1ccccc1` was run?
A: active: 31.6 µM

Q: With `COc1ccc(C(=O)Nn2c(SCC(=O)NCc3ccco3)nc3ccccc3c2=O)cc1` as the compound, how does the Potency read?
A: inconclusive: 39.8 µM [inhibitor, single point]

Q: How did the Potency turn out when `CCCC(=O)Nc1nn(C)c2nc3c(C)cccc3cc12` was run?
A: inconclusive: 39.8 µM [inhibitor, single point]

Q: For `COC(=O)c1cc(=O)nc2sc(-c3cccs3)nn12`, which Potency is on record?
A: inconclusive: 31.6 µM [inhibitor, single point]

Q: For `c1ccc2c(CC3NCCN3)cccc2c1`, which activity change, negative = inhibition is on record?
A: inactive: -4.53% [at 11.4 µM]

Q: For `Cc1sc(NC(=O)c2ccco2)nc1-c1ccc2c(c1)CC(C)N2C(=O)C1CC1` (centres undefined), which Potency is on record?
A: inconclusive: 39.8 µM [inhibitor, single point]

Q: For `Cc1nn(-c2ccccc2)c2nc(-c3ccncc3)cc(C(=O)NCc3ccco3)c12`, which Potency is on record?
A: inconclusive: 39.8 µM [inhibitor, single point]

Q: How did the Potency turn out when `N[C@@H](C(=O)O)[C@@H]1C[C@H]1C(=O)O` was run?
A: inactive

Q: With `COc1ncc2nc(-c3ccc(F)cc3)c(=O)n(C)c2n1` as the compound, how does the Potency read?
A: inconclusive: 31.6 µM [inhibitor, single point]

Q: How did the Potency turn out when `Cc1cc2ncn(C3CC(=O)N(Cc4ccc(N5CCCC5=O)cc4)C3=O)c2cc1C` (centres undefined) was run?
A: inconclusive: 39.8 µM [inhibitor, single point]

Q: `Cc1noc(C)c1-c1nccc(N2CCNCC2)n1` was tested. Which Potency did it give?
A: inconclusive: 31.6 µM [inhibitor, single point]

Q: How did the Potency turn out when `O=C1NC(=O)c2cc(NC(=O)C3CCCCC3)ccc21` was run?
A: inconclusive: 31.6 µM [inhibitor, single point]

Q: Which Potency does the source give for `O=C(CCCN1C(=O)c2cccnc2C1=O)N1CC(=O)N(CCc2ccccc2)C(=O)C1` here?
A: inactive

Q: For `O=C(OC1CCOC1=O)c1ccc(-c2nc3ccccc3s2)s1` (centres undefined), which Potency is on record?
A: inconclusive: 39.8 µM [inhibitor, single point]

Q: How did the Potency turn out when `CCN(CC)S(=O)(=O)c1ccc2c(c1)nc(CCC(=O)OCC(=O)N1CCc3ccccc31)n2C` was run?
A: inconclusive: 25.1 µM [inhibitor, single point]

Q: `Fc1ccc(NCc2nnc(SCc3nnc(-c4ccccc4)o3)n2Cc2ccccc2)cc1` was tested. Which Potency did it give?
A: inactive

Q: For `CC1CCCC(C)N1CCNC(=O)CCn1nc(-c2ccccc2)ccc1=O` (centres undefined), which Potency is on record?
A: inactive

Q: How did the Potency turn out when `Cc1ccc(-n2ncc3c(=O)[nH]c(SC(C)C)nc32)cc1` was run?
A: inactive

Q: For `S=C1NC=NC2N=CNC12` (centres undefined), which Potency is on record?
A: inconclusive: 15.8 µM [inhibitor, full curve]

Q: How did the Potency turn out when `CCCCn1c(CCNC(=O)CC)nc2ccccc21` was run?
A: inactive

Q: With `N#Cc1c2n(c3c(=O)n(Cc4ccc(Cl)cc4)cnc13)CCCCC2` as the compound, how does the Potency read?
A: inactive

Q: `COC(=O)c1c(NC(=O)CN2CCN(c3ccccc3OC)CC2)c2c(C)cccc2n1C` was tested. Which Potency did it give?
A: inactive

Q: `COc1cc(S(=O)(=O)n2nnc3ccccc32)c(OC)cc1Cl` was tested. Which Potency did it give?
A: inconclusive: 15.8 µM [inhibitor, partial curve]

Q: Which Potency does the source give for `CC(=O)NCCN=Cc1sc2ccccc2c1O` here?
A: active: 31.6 µM

Q: `COc1ccc(CCNC(=O)CCC(=O)N2CCN(S(=O)(=O)c3ccccc3)CC2)cc1OC` was tested. Which Potency did it give?
A: inactive

Q: For `COc1ccc(-c2oc3ncn(CCN4CCOCC4)c(=N)c3c2-c2ccc(OC)cc2)cc1`, which Potency is on record?
A: inconclusive: 39.8 µM [inhibitor, single point]

Q: `CCCCS(=O)(=O)/C=C\C=C/S(=O)(=O)CCCC` was tested. Which Potency did it give?
A: inconclusive: 0.501 µM [inhibitor, full curve]

Q: How did the Potency turn out when `Cc1ccc(-c2nc(C#N)c(NCc3ccco3)o2)cc1` was run?
A: active: 31.6 µM

Q: With `CC(=O)N1C(C(=O)O)CSC1c1ccc(C)cc1` (centres undefined) as the compound, how does the Potency read?
A: inactive

Q: `CN(C)c1ccc(-c2cc(NCc3ccccc3)ncn2)cc1` was tested. Which Potency did it give?
A: inconclusive: 31.6 µM [inhibitor, single point]

Q: With `O=S(=O)(c1ccccc1)N(Cc1nc(-c2ccccc2)no1)C1CCCCC1` as the compound, how does the Potency read?
A: inconclusive: 31.6 µM [inhibitor, single point]

Q: How did the activity change, negative = inhibition turn out when `CCC1SC(=NC(=O)c2ccc(Cl)c(Cl)c2)NC1=O` (centres undefined) was run?
A: inactive: 1.9% [at 11.4 µM]

Q: `O=c1c2[nH]c3ccc(F)cc3c2ncn1CCCn1ccnc1` was tested. Which Potency did it give?
A: inconclusive: 25.1 µM [inhibitor, single point]

Q: Which Potency does the source give for `CC(C)(C(=O)c1cccnc1)c1cccnc1` here?
A: inactive

Q: Which Potency does the source give for `CCOC(=O)Nc1sc(=S)n(C)c1C` here?
A: inconclusive: 15.8 µM [inhibitor, partial curve]

Q: With `COc1cc(-n2nc(C)c3c2OC(N)=C(C#N)C3c2ccccc2)c(Cl)c(Br)c1O` (centres undefined) as the compound, how does the Potency read?
A: inconclusive: 20 µM [inhibitor, partial curve]

Q: Which Potency does the source give for `COc1cccc(Nc2ncnc3c2cnn3C)c1` here?
A: inactive

Q: For `Cc1c(O)ccc2c3c(c(=O)oc12)CCCC3`, which Potency is on record?
A: active: 25.1 µM
